Laboratory results published in the supplement of paper PMC11876631.
± gives the standard deviation of the averaged measurements. Laboratory Escherichia coli strains with one amino-acid change in an essential protein, pooled on minimal glucose agar with carbenicillin or gentamicin at twice the control MIC (plus kanamycin and chloramphenicol for the plasmids), 48 h. Fold change of barcode share against drug-free plates; higher = less susceptible. Active = above 20 in both replicates (the paper's putatively resistant). '<' = one read or none on drug, '>' = one read or none on a drug-free plate. Shares are relative, so most strains fall below 1 when a few take over. Listed are strains with at least 15 reads on both drug-free plates, and hits; most hits rest on fewer reference reads. Replicate rank correlation about 0.5. Edits are read from barcodes.

B1: pheT; numbered along this chain (parent)
chain: MKFSELWLREWVNPAIDSDALANQITMAGLEVDGVEPVAGSFHGVVVGEVVECAQHPNADKLRVTKVNVGGDRLLDIVCGAPNCRQGLRVAVATIGAVLPGDFKIKAAKLRGEPSEGMLCSFSELGISDDHSGIIELPADAPIGTDIREYLKLDDNTIEISVTPNRADCLGIIGVARDVAVLNQLPLVQPEIVPVGATIDDTLPITVEAPEACPRYLGRVVKGINVKAPTPLWMKEKLRRCGIRSIDAVVDVTNYVLLELGQPMHAFDKDRIEGGIVVRMAKEGETLVLLDGTEAKLNADTLVIADHNKALAMGGIFGGEHSGVNDETQNVLLECAFFSPLSITGRARRHGLHTDASHRYERGVDPALQHKAMERATRLLIDICGGEAGPVIDITNEATLPKRATITLRRSKLDRLIGHHIADEQVTDILRRLGCEVTEGKDEWQAVAPSWRFDMEIEEDLVEEVARVYGYNNIPDEPVQASLIMGTHREADLSLKRVKTLLNDKGYQEVITYSFVDPKVQQMIHPGVEALLLPSPISVEMSAMRLSLWTGLLATVVYNQNRQQNRVRIFESGLRFVPDTQAPLGIRQDLMLAGVICGNRYEEHWNLAKETVDFYDLKGDLESVLDLTGKLNEVEFRAEANPALHPGQSAAIYLKGERIGFVGVVHPELERKLDLNGRTLVFELEWNKLADRVVPQAREISRFPANRRDIAVVVAENVPAADILSECKKVGVNQVVGVNLFDVYRGKGVAEGYKSLAISLILQDTSRTLEEEEIAATVAKCVEALKERFQASLRD
B2: proS; numbered along this chain (parent)
chain: MRTSQYLLSTLKETPADAEVISHQLMLRAGMIRKLASGLYTWLPTGVRVLKKVENIVREEMNNAGAIEVSMPVVQPADLWQESGRWEQYGPELLRFVDRGERPFVLGPTHEEVITDLIRNELSSYKQLPLNFYQIQTKFRDEVRPRFGVMRSREFLMKDAYSFHTSQESLQETYDAMYAAYSKIFSRMGLDFRAVQADTGSIGGSASHEFQVLAQSGEDDVVFSDTSDYAANIELAEAIAPKEPRAAATQEMTLVDTPNAKTIAELVEQFNLPIEKTVKTLLVKAVEGSSFPQVALLVRGDHELNEVKAEKLPQVASPLTFATEEEIRAVVKAGPGSLGPVNMPIPVVIDRTVAAMSDFAAGANIDGKHYFGINWDRDVATPEVADIRNVVAGDPSPDGQGRLLIKRGIEVGHIFQLGTKYSEALKASVQGEDGRNQILTMGCYGIGVTRVVAAAIEQNYDERGIVWPDAIAPFQVAILPMNMHKSFRVQELAEKLYSELRAQGIEVLLDDRKERPGVMFADMELIGIPHTIVLGDRNLDNDDIEYKYRRNGEKQLIKTGDIVEYLVKQIKG
B3: pgsA; numbered along this chain (parent)
chain: MQFNIPTLLTLFRVILIPFFVLVFYLPVTWSPFAAALIFCVAAVTDWFDGFLARRWNQSTRFGAFLDPVADKVLVAIAMVLVTEHYHSWWVTLPAATMIAREIIISALREWMAELGKRSSVAVSWIGKVKTTAQMVALAWLLWRPNIWVEYAGIALFFVAAVLTLWSMLQYLSAARADLLDQ

Variants of: B1
Assay: barcode share on antibiotic plates over drug-free plates; higher = less susceptible
Conditions: with Escherichia coli (laboratory strain); antibiotic: carbenicillin; 2× MIC (3.1 µg/mL)
Description: (§1)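 A pool of E. coli strains, each edited to carry one amino-acid change in an essential protein, was grown for 48 h on minimal glucose agar with or without antibiotic; strain barcodes were sequenced; mean of two replicates.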

Row | Variant | fold change of barcode share
1 | V221Q | 0.431 ± 0.051
2 | L217D | 0.425 ± 0.057
3 | L217Q | 0.835 ± 0.12
4 | L217A | 0.354 ± 0.0089
5 | L217W | 0.347 ± 0.073
6 | L217P | 0.225 ± 0.055
7 | V712W | 0.718 ± 0.066
8 | V712P | 0.441 ± 0.0095
9 | V712A | 0.369 ± 0.16
10 | V712Q | 0.332 ± 0.13
11 | V278A | 0.399 ± 0.34
12 | V278W | 0.383 ± 0.13
13 | V278Q | 0.42 ± 0.15
14 | V278D | 0.483 ± 0.26
15 | V278P | 0.253 ± 0.023
16 | V714Q | 0.151 ± 0.079
17 | V714P | 0.267 ± 0.074
18 | V714A | 0.283 ± 0.05
19 | L257Q | 0.4 ± 0.27
20 | L257D | 0.264 ± 0.12
21 | L257P | 0.361 ± 0.037
22 | L257W | 0.231 ± 0.15
23 | L257A | 0.214 ± 0.011
24 | V713Q | 0.229 ± 0.0062
25 | V713A | 0.319 ± 0.16

Same assay, conditions: with Escherichia coli (laboratory strain); antibiotic: gentamicin; 2× MIC (MIC 0.45 µg/mL)

Row | Variant | fold change of barcode share
26 | V221Q | 0.0043 ± 0.00027
27 | V221A | 0.00774 ± 0.0022
28 | L217D | 0.00442 ± 0.0044
29 | L217Q | 0.0081 ± 0.0024
30 | L217A | < 0.00134
31 | L217W | 0.00413 ± 0.00058
32 | L217P | < 0.0124
33 | V712W | < 0.00782
34 | V712P | < 0.00404
35 | V712A | < 0.00772
36 | V712Q | 0.0105 ± 0.0098
37 | V278A | 0.00868 ± 0.0034
38 | V278W | 0.00718 ± 0.004
39 | V278Q | 0.00612 ± 0.0029
40 | V278D | 0.0057 ± 0.0022
41 | V278P | 0.00466 ± 0.001
42 | V714A | < 0.00929
43 | L257Q | < 0.00735
44 | L257D | 0.0128 ± 0.0095
45 | L257P | 0.00683 ± 0.0024
46 | L257W | < 0.00477
47 | L257A | < 0.00831
48 | V713Q | < 0.00535
49 | V713A | < 0.00787

Variants of: B2
Assay: as above
Conditions: with Escherichia coli (laboratory strain); antibiotic: carbenicillin; 2× MIC (3.1 µg/mL)
Description: as §1

Row | Variant | fold change of barcode share
50 | V283A | 0.283 ± 0.064
51 | L479Q | 0.207 ± 0.015
52 | L479W | 0.263 ± 0.015
53 | M441Q | 0.236 ± 0.086
54 | M441A | 0.265 ± 0.12
55 | V278Q | 0.388 ± 0.2
56 | V278A | 2.13 ± 2.4
57 | W467Q | 0.338 ± 0.019
58 | W467A | 0.374 ± 0.23
59 | W467P | 0.472 ± 0.19
60 | L266Q | 0.223 ± 0.13
61 | L266W | 0.585 ± 0.3
62 | L266P | 0.3195 ± 0.00057
63 | L266D | 0.187 ± 0.11
64 | L266A | 0.22 ± 0.0075
65 | L492D | 1.7 ± 1.1
66 | L492Q | 0.225 ± 0.011
67 | L492W | 0.501 ± 0.18
68 | L492A | 0.853 ± 0.29
69 | L492P | 0.464 ± 0.24
70 | I414D | 0.372 ± 0.1
71 | I414P | 0.188 ± 0.0051
72 | I414W | 0.635 ± 0.4
73 | I414A | 0.439 ± 0.066
74 | I414Q | 0.161 ± 0.023

Same assay, conditions: with Escherichia coli (laboratory strain); antibiotic: gentamicin; 2× MIC (MIC 0.45 µg/mL)

Row | Variant | fold change of barcode share
75 | V283A | 0.00776 ± 0.0052
76 | L479Q | 0.154 ± 0.058
77 | L479W | < 0.00707
78 | L479A | < 0.00415
79 | L479P | 0.00661 ± 0.0034
80 | M441Q | 0.00848 ± 0.0053
81 | M441A | 0.488 ± 0.68
82 | V278A | < 0.00801
83 | W467Q | < 0.00369
84 | W467A | 0.00744 ± 0.0018
85 | W467P | 0.00693 ± 0.0059
86 | L266Q | < 0.0124
87 | L266W | 0.00984 ± 0.0044
88 | L266P | < 0.00876
89 | L266D | 0.0112 ± 0.0065
90 | L266A | < 0.0108
91 | L492D | 0.0107 ± 0.011
92 | L492Q | 0.00459 ± 0.0036
93 | L492W | 0.0103 ± 0.012
94 | L492A | 0.0124 ± 0.0098
95 | L492P | < 0.00543
96 | I414D | 0.0156 ± 0.014
97 | I414W | 0.0357 ± 0.032
98 | I414A | < 0.0122
99 | I414Q | < 0.00734

Variants of: B3
Assay: as above
Conditions: with Escherichia coli (laboratory strain); antibiotic: carbenicillin; 2× MIC (3.1 µg/mL)
Description: as §1

Row | Variant | fold change of barcode share
100 | I38P | 0.224 ± 0.082
101 | I38W | 0.401 ± 0.13
102 | I38Q | 0.226 ± 0.11
103 | I38A | 0.287 ± 0.019

Same assay, conditions: with Escherichia coli (laboratory strain); antibiotic: gentamicin; 2× MIC (MIC 0.45 µg/mL)

Row | Variant | fold change of barcode share
104 | I38P | 784 [active]
105 | I38W | 0.707 ± 0.71
106 | I38Q | 63.2 ± 64
107 | I38A | 0.0171 ± 0.0087
